Tested on: anti-pSer133 antibody labeled with CS124-DTPA-Phe-NCS*Tb
Settings: TR-RET

**Q.** Which “binding affinity for Tb-chelate labeled anti-pSer133 antibody” value does the source give for “LRREILSRRP(pS)YRK-Fluorescein [SEQ ID NO:7]” here?
**A.** sub-nM

Reference: patent US20050064485A1, “Multiplex binding and activity assays” (priority 2003, published 2005)
